Laboratory results reported in the supplement of paper PMC4604168 (melanoma cell lines).
This is one part of the list. Repeats are few or missing, and single values can be far off.

Legend:
Experiment in all cases: cell count relative to DMSO control; melanoma cells; higher = more viable cells
Details in all cases: library dose: low library concentration; 72 h
COLO792 = test system: COLO792
COLO800 = test system: COLO800
COLO829 = test system: COLO829
G361 = test system: G361
IPC-298 = test system: IPC-298
IST-MEL1 = test system: IST-MEL1
LB2518-MEL = test system: LB2518-MEL
LOXIMVI = test system: LOXIMVI
MEL-HO = test system: MEL-HO
MZ2-MEL = test system: MZ2-MEL
MeWo = test system: MeWo
RPMI7951 = test system: RPMI7951
RVH-421 = test system: RVH-421
SkMel28 = test system: SkMel28
SkMel30 = test system: SkMel30
SkMel5 = test system: SkMel5
UACC257 = test system: UACC257
UACC62 = test system: UACC62
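Note: cell number obtained by counting DAPI-stained nuclei in high-throughput microscope images with image analysis software, screen run in 1,536-well plates.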

SMILES | cell count (COLO792) | cell count (COLO800) | cell count (COLO829) | cell count (G361) | cell count (IPC-298) | cell count (IST-MEL1) | cell count (LB2518-MEL) | cell count (LOXIMVI) | cell count (MEL-HO) | cell count (MZ2-MEL) | cell count (MeWo) | cell count (RPMI7951) | cell count (RVH-421) | cell count (SkMel28) | cell count (SkMel30) | cell count (SkMel5) | cell count (UACC257) | cell count (UACC62)
C[C@]12O[C@H](C[C@]1(O)CO)n1c3ccccc3c3c4c(c5c6ccccc6n2c5c31)CNC4=O [Lestaurtinib] + c1cc(-c2cnn3cc(-c4ccc(OCCN5CCCCC5)cc4)cnc23)ccn1 [Dorsomorphin] (first compound 0.004 µM, partner dose 0.4 µM) | 102% | 105% | 101% | 88.5% | 105% | 99.8% | 101% | 109% | 77.8% | 106% | 80.5% | 107% | 95% | 112% | 93.9% | 81% | 101% | 105%
C[C@]12O[C@H](C[C@]1(O)CO)n1c3ccccc3c3c4c(c5c6ccccc6n2c5c31)CNC4=O [Lestaurtinib] + C=CCn1c(=O)c2cnc(Nc3ccc(N4CCN(C)CC4)cc3)nc2n1-c1cccc(C(C)(C)O)n1 [MK1775] (first compound 0.004 µM, partner dose 0.02 µM) | 87.7% | 121% | 106% | 93.9% | 95.3% | 106% | 103% | 143% | 117% | 99.1% | 81% | 117% | 102% | 81.5% | 68% | 86.4% | 93.5% | 63.9%
C[C@]12O[C@H](C[C@]1(O)CO)n1c3ccccc3c3c4c(c5c6ccccc6n2c5c31)CNC4=O [Lestaurtinib] + O=S(=O)(c1ccccc1)N(CC(F)(F)F)c1ccc(C(O)(C(F)(F)F)C(F)(F)F)cc1 [T0901317] (first compound 0.004 µM, partner dose 1.4 µM) | 98.2% | 86% | 101% | 92.3% | 90.7% | 94.4% | 92.6% | 71.2% | 92.4% | 103% | 93.1% | 106% | 93.5% | 92.5% | 89.1% | 95.8% | 91.9% | 92.4%
C[C@]12O[C@H](C[C@]1(O)CO)n1c3ccccc3c3c4c(c5c6ccccc6n2c5c31)CNC4=O [Lestaurtinib] + N#Cc1c(O)c2c(-c3ccc(-c4ccccc4O)cc3)csc2[nH]c1=O [A769662] (first compound 0.004 µM, partner dose 2 µM) | 97.3% | 152% | 109% | 102% | 97.1% | 101% | 104% | 127% | 103% | 101% | 90.2% | 107% | 114% | 101% | 84.2% | 108% | 87.7% | 86.7%
C[C@]12O[C@H](C[C@]1(O)CO)n1c3ccccc3c3c4c(c5c6ccccc6n2c5c31)CNC4=O [Lestaurtinib] + NCC(=O)Nc1ccc(-n2nc(C(F)(F)F)cc2-c2ccc3c(ccc4ccccc43)c2)cc1 [OSU03012] (first compound 0.004 µM, partner dose 1 µM) | 94.5% | 85.3% | 97.7% | 97.6% | 88.8% | 98% | 110% | 101% | 108% | 101% | 43.3% | 122% | 123% | 84.9% | 59.8% | 89.8% | 94.1% | 95.9%
C[C@]12O[C@H](C[C@]1(O)CO)n1c3ccccc3c3c4c(c5c6ccccc6n2c5c31)CNC4=O [Lestaurtinib] + COc1cc2ncnc(Nc3ccc(Oc4ccccc4)cc3)c2cc1OC [SrcI1] (first compound 0.004 µM, partner dose 2 µM) | 97.6% | 157% | 114% | 90.8% | 93% | 103% | 116% | 152% | 97.2% | 88.3% | 84% | 129% | 74.1% | 90.9% | 86.8% | 104% | 78.4% | 79.5%
Cn1cc(C2=C(c3cn(C4CCN(Cc5ccccn5)CC4)c4ccccc34)C(=O)NC2=O)c2ccccc21 [Enzastaurin] + Cc1cc([N+](=O)[O-])ccc1NS(=O)(=O)c1cc(Cl)ccc1Cl [FH535] (first compound 0.8 µM, partner dose 1 µM) | 84.5% | 74.8% | 119% | 86.9% | 99.9% | 85.8% |  | 93.5% | 94.1% |  | 117% | 97.3% | 93.5% | 93.7% | 94.8% | 77.3% | 69.7% | 78%
C[C@]12O[C@H](C[C@]1(O)CO)n1c3ccccc3c3c4c(c5c6ccccc6n2c5c31)CNC4=O [Lestaurtinib] + O=C(CCCCCCC(=O)Nc1ccccc1)NO [vorinostat] (first compound 0.004 µM, partner dose 0.08 µM) | 98% | 121% | 77.8% | 96.9% | 108% | 98.7% | 105% | 95% | 89.4% | 103% | 78.9% | 98.8% | 90.6% | 78.4% | 74.8% | 104% | 72.5% | 86.1%
N.N.[Cl][Pt][Cl] [cisplatin] + C=CCn1c(=O)c2cnc(Nc3ccc(N4CCN(C)CC4)cc3)nc2n1-c1cccc(C(C)(C)O)n1 [MK1775] (first compound 1.6 µM, partner dose 0.02 µM) | 93.2% | 92.1% | 112% | 81.6% | 99.8% | 93.8% |  | 84.5% | 88.4% |  | 98.4% | 97.7% | 76.1% | 72.2% | 89.6% | 91.5% | 83.1% | 81.7%
C[C@]12O[C@H](C[C@]1(O)CO)n1c3ccccc3c3c4c(c5c6ccccc6n2c5c31)CNC4=O [Lestaurtinib] + COc1ccc2c(c1)CCC1C2CCC2(C)C(NCCCCCCN3C(=O)C=CC3=O)CCC12 [U73122] (first compound 0.004 µM, partner dose 0.4 µM) | 94.9% | 84.5% | 107% | 112% | 103% | 103% | 109% | 75.3% | 95.9% | 104% | 99.6% | 78.9% | 94.1% | 103% | 84.7% | 101% | 88.2% | 99.6%
C[C@]12O[C@H](C[C@]1(O)CO)n1c3ccccc3c3c4c(c5c6ccccc6n2c5c31)CNC4=O [Lestaurtinib] + O=C1NC(=O)/C(=C/c2ccc(-c3ccc(F)cc3O)o2)S1 [AS252424] (first compound 0.004 µM, partner dose 1 µM) | 107% | 78.2% | 133% | 95.9% | 98.5% | 104% | 95.9% | 87.8% | 109% | 106% | 84.4% | 108% | 124% | 112% | 88.1% | 114% | 93.8% | 95.3%
